In paper PMC12136788:
The other results are listed elsewhere or left out.

T1: UNK ZnF1-3 (human, UniProt Q9C0B0 31-174)
T1 sequence: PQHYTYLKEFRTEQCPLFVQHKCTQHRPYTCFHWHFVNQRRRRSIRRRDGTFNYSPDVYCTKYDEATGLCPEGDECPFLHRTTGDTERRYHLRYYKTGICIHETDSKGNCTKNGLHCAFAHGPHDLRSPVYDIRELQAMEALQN

B1: chr14:103803487:103803488:+_ENSG00000100664_ENST00000558506|hu_mus|hu_hu_hu_mus_True|88_88 (ssRNA)
RNA: GGGAGUUCUACAGUCCGACGAUCGAGUUUAUGAUGUGUGUCAAGCAUGCCUCGAUACCCACAGGCUUUACAAGAAUUACCUAUUGUUUGCUUCUUUGGAUUGACAUGCAGAUCUGUUUCAGGAUUCUCACACUCAGGACAGAGCAACAGAGGAUUGAGCAUCA
B2: chr2:163839828:163839829:+_ENSMUSG00000018326_ENSMUST00000018470|mus_hu|FALSE|FALSE (ssRNA)
RNA: GGGAGUUCUACAGUCCGACGAUCGGAGUUCGACACAGUGGUUUGUUUGUUGUCUCCAGAUGCCACUUCAGAAAGAUACCUAAAAUAAUCUCCUUUCAUUUUCAAGUAGAACACCUUACUUUCUGGUUGUGUAGCAUUGGGAAUCAACAGAGGAUUGAGCAUCA
B3: chr1:46159212:46159213:+_ENSG00000159596_ENST00000372025|hu_mus|hu_hu_hu_mus_True|48_58 (ssRNA)
RNA: GGGAGUUCUACAGUCCGACGAUCUCUGAUCCCUCCCAAGAAAGCUAGGAAACCGGCUCCAUAAGCCAUCUGAGUGAAAGCUAAUAUGGGAAUAUAAGACUUUGUUAUUACCAUGAGAAGUGGGGGAGCAGUAAAGGGGAUUAACAACAGAGGAUUGAGCAUCA
B4: chr3:9412954:9412955:+_ENSG00000134077_ENST00000452837|hu_mus|hu_hu_hu_mus_False|68_78 (ssRNA)
RNA: GGGAGUUCUACAGUCCGACGAUCGGUUGAUAUCUCUUCUUUGAUGGCUGGAUUUUCAUAAUAAUCUAAGAUAUGAGAAUCUGAAGUGCUGCUGGCAUGCUUUUUCUUACCAUCUUUCUCAUCUGCUUUGUCUCCUUGUCCACACAACAGAGGAUUGAGCAUCA
B5: chr1:39494564:39494565:+_ENSG00000168653_ENST00000372967|hu_hu|hu_hu_hu_mus_True|1_8 (ssRNA)
RNA: GGGAGUUCUACAGUCCGACGAUCAUGCAUUCGCCUCAUCGUUUUGUACCGAAGCAAGCACUCUUCGAAGUCAUCGAACUCUAUCUUGCACUCCUUUUUCGCCCGGGUCCCACCGAUCCCGUGUGCACAUUCUAUCCAUUCUUUCAACAGAGGAUUGAGCAUCA
B6: chr11:100452861:100452862:-_ENSMUSG00000014195_ENSMUST00000014339|mus_hu|motif|central (ssRNA)
RNA: GGGAGUUCUACAGUCCGACGAUCCCAUUCGUAGAAUGUCACUAGCCACAGACUGUGCUUCUGGAUAACGACCCAGCAUUGCGGAACAUUCUGCCUUGAGGAUUUUGAAGCGAUGGCAGGCAGGGGCAAAUUCUAGGGCACGGUCAACAGAGGAUUGAGCAUCA
B7: chr17:34054454:34054455:+_ENSMUSG00000051390_ENSMUST00000053429|mus_mus|FALSE|FALSE (ssRNA)
RNA: GGGAGUUCUACAGUCCGACGAUCAAAUGCAUCCUGGGAGGUAGAGGAGAAAUCAGUCGACUCCCGGGGGCUGAAGUAGUUGCUACUGCUGGGAGACUGAUUCUCACUGGCCCUGCUGGAGGUAUGGGAACGGACAGAGCCUACCAACAGAGGAUUGAGCAUCA
B8: chr3:176740097:176740098:-_ENSG00000177565_ENST00000430069|hu_mus|hu_hu_hu_mus_True|68_68 (ssRNA)
RNA: GGGAGUUCUACAGUCCGACGAUCUGUUUUGUAUACCACAAAAGGAGGCACUUUCAGUAUCUGCAAAAGGUAUUUAAUCCUAAAACAUACUCACCUAGAGGAUAACUCAGGAAAACAAUCUGUUACACUCUAAGACCUACUCCACAACAGAGGAUUGAGCAUCA
B9: 52416732_52418160_1049_CDS_ENSG00000069966_ENST00000358784|human|control|control (ssRNA)
RNA: GGGAGUUCUACAGUCCGACGAUCGCUAACGCGGUUUUCAUGUCCAAACAGGAUGGAGACCCGGGACCCUUUGAGAACAUCCCAGACGUUGAUAGUGUAAUCAUUGUAUCCAGCAAACAGCAGGCGACCACUGAGGGAGAAGUCCAACAGAGGAUUGAGCAUCA
B10: 18965736_18965856_2424_3pUTR_ENSG00000165997_ENST00000377275|human|control|control (ssRNA)
RNA: GGGAGUUCUACAGUCCGACGAUCAAUCACUAAGAAAACGGCUUAAAACAAAGUUAAACAACUACUUUCCAAAGCCCAGAAAGCUUUCCUUUGGCCACUGUUCAGUUCAAGGGUGUGCUCCAACUAAAGAUAAAUCAGAAAAAUCAACAGAGGAUUGAGCAUCA
B11: 107600205_107600935_2585_CDS_ENSG00000091136_ENST00000393561|human|control|control (ssRNA)
RNA: GGGAGUUCUACAGUCCGACGAUCGGGCCGGCACUGGCACUGGCCUCCGUUGGGAUCACACACGGAACUUAACGAACCCUGAGGGUCGCAUUCACAAGCCAGGCCUGUCUGGUGUAACAGGGCAGAAAUGCUAAAGAUGAUGUUCAACAGAGGAUUGAGCAUCA
B12: chr8:95500983:95500984:-_ENSG00000164944_ENST00000437199|hu_hu|hu_hu_hu_mus_True|48_88 (ssRNA)
RNA: GGGAGUUCUACAGUCCGACGAUCAGAACACAUCUAUCGAGUAAAGGGAGCGUACAUACGGCCUCUACCACUGCCUCCACUAACAAAACUUUCCUCUGAGCCUCCACUGCCGCUAUUUGUACUAGCCCAGGACGGUCCCAGGCCCAACAGAGGAUUGAGCAUCA
B13: chr10:116622694:116622695:+_ENSG00000151553_ENST00000369248|hu_hu|motif|central (ssRNA)
RNA: GGGAGUUCUACAGUCCGACGAUCAAUAAACCAGAAAAGCUAACACAACAAAAUGAGCAGAUAGGUGUAAAACAAGCCUCGGUGCACAUGCCACACAAUGCGUAUAUGCAAACAUGCUACAUAAAAUAACUUCCUAGAGGGGGUCAACAGAGGAUUGAGCAUCA
B14: chr12:493273:493274:-_ENSG00000073614_ENST00000399788|hu_hu|motif|central (ssRNA)
RNA: GGGAGUUCUACAGUCCGACGAUCUUUUCUCUCUACCACAGGGAUCUUCAGAGUAGAUCCUUGAAGUUCCCAAAAUUUUGCGGGUUGAUCCAAGAAAUCCAAUCUCACUCUGGUCAUUGCCUCAAGUUCAUUCAGGCGCUGGACCAACAGAGGAUUGAGCAUCA

Biological target: T1, UNK ZnF1-3
Assay: nsRBNS (natural sequence RNA bind-n-seq); RBNS binding buffer (assumed for nsRBNS): 25 mM Tris pH 7.5, 150 mM KCl, 3 mM MgCl2, 0.01% Triton X-100, 500 ug/ml BSA, 20 U/ml SUPERase-In, 4 C; UNK is unkempt and MSI1 is Musashi-1; names of the RNAs are library labels; protein concentration not given here; high values mean tight binding

Binder | binding signal [enrichment R]
B1 | 1.19
B2 | 0.43
B3 | 1.36
B4 | 0.514
B5 | 0.756
B6 | 1.02
B7 | 1.45
B8 | 0.954
B9 | 1.27
B10 | 1.64
B11 | 0.859
B12 | 1.71
B13 | 1.38
B14 | 1.18
